Among all 150,000 compounds or so, about 540 (0.36%) showed an effect of 50% or more. The list shows a part of the results.

In this assay the test system is Plasmodium falciparum. The assay can be described thus: Primary screen in NF54 nanoGlo assay, in single point, at 2uM, 72h; a lower Z score goes with more inhibition. Format: functional, Erythrocyte. The following applies: timepoint 72 hour.
Turning to `O=C(COc1ccccc1)N[C@@H](c1ccsc1)c1cccs1`, the % Inhibition (usually the relative decrease from the control value, in per cent) is reported as -4% and the Z score is 0.76.
For `COc1ccc(C(=O)N2C[C@@H]3CC[C@H]2CN(S(=O)(=O)N(C)C)C3)o1`, in that order: -9% and 1.74.
For `CCN1CCCC1CN1CC(C(=O)N[C@H](CC(C)C)C(=O)O)CC1=O` (some centres not stated), in that order: 8% and -1.01.
Turning to `Oc1ccccc1-c1cnc(C(F)(F)F)s1`, the “% Inhibition” value is given as 93% and the Z score is -17.09.
On the same counts, the results for `CCCOC(=O)N1CCN(Cc2cnn(CC)c2)[C@@H]2CS(=O)(=O)C[C@@H]21` are -12% and 2.41.
On the same counts, the results for `COc1cccc(CNCCN2CCCC2=O)c1OC[C@@H](O)CN1CCOCC1` are -6% and 0.93.
For `O=C(Nc1ccccc1)C1CCN(Cc2cnc(C3OCCO3)s2)CC1`, the “% Inhibition” value is -13% and the Z score was found to be 1.48.
On the same counts, the results for `CCC(=O)Nc1ccc2c(c1)CN(C(=O)c1cccc(Cl)c1)[C@H](C(=O)N1CCCC1)C2` are -8% and 1.28.
As to `COc1cccc(F)c1-c1cnn(CC2CC2)c1`, the “% Inhibition” value is recorded as -15% and the Z score worked out at 1.35.
For `CC(C)CNc1nc(Nc2ccc(F)cc2)c2nn[nH]c2n1`, in that order: -2% and 0.29.
With `Cc1cc(C(=O)N2CC(C)(C)Oc3cc(Br)ccc32)ncn1`, the “% Inhibition” value is -9% and the Z score was determined as 1.36.
For `CNc1nc2c(c(C(=O)N3CCCC3)n1)CN(C(=O)N(C)c1ccccc1)CC2`, in that order: -10% and 1.96.
On the same counts, the results for `Cc1ccc(OCCN(C)C(=O)NCC2(Cn3ccnc3)CC2)c(C)c1` are -5% and 1.
On to `CCOc1ccc(NC(=O)Cn2nc3c(N(C)C)nc4ccccc4n3c2=O)cc1`, for which the “% Inhibition” value was -13% and the Z score came to 1.82.
For `Cn1ccnc1[C@H](C1CC1)n1cnc2cccc(F)c2c1=O`, in that order: -2% and 0.32.
For `CN(C(=O)CCC(F)(F)F)c1ccc(Br)cc1F`, in that order: -3% and 0.44.
On the same counts, the results for `COc1ccc(S(=O)(=O)N2CCCc3ccccc32)cc1NC(=O)c1ccc(Cl)cc1` are -29% and 3.41.
Turning to `CCc1nnc(C(=O)N[C@H](CO)[C@@H](C)O)s1`, the “% Inhibition” value is given as -5% and the Z score was 0.97.
For `CCC1(CC)C(NC(=O)Cc2cc(C)[nH]n2)C(C)C1OC` (configuration not stated), in that order: -7% and 1.09.
For `c1cc(-c2nccn2CC[C@H]2CCCCO2)cc(-n2cccn2)c1`, in that order: 0% and 0.04.
On the same counts, the results for `Cc1ccc(Oc2nc(N3CCC(C)CC3)nc3c2CN(S(=O)(=O)c2cccc(C)c2)CC3)cc1` are -2% and 0.36.
Take `Cc1nc(CNC(=O)NCCc2csc(-c3ccccc3)n2)no1`: the “% Inhibition” value was -9% and the Z score was determined as 1.47.
On the same counts, the results for `COc1ccccc1Oc1cn[nH]c1-c1ccc(OCc2ccccc2C)cc1O` are -7% and 0.65.
On the same counts, the results for `Cc1ccn(CCC(=O)Nc2cccnc2)n1` are -1% and 0.08.
For the compound `CC(C)Oc1ncccc1C(=O)N1CCS(=O)(=O)c2ccccc2C1`, the “% Inhibition” value was -11% and the Z score was found to be 2.16.
For `O=C(C1CCC1)N1CC(n2ccnc2)C1`, in that order: 1% and -0.25.
On the same counts, the results for `CC(C)[C@H](OC(=O)c1cc[nH]n1)C(=O)N1CCc2ccccc2C1` are -11% and 1.63.
On the same counts, the results for `Fc1ccccc1[C@H](c1nnc(-c2ccccc2)o1)N1CCC2(CC1)OCCO2` are -11% and 1.16.
In the case of `CCN1CCN(CCN2CC3(CCN(Cc4ccccc4C#N)CC3)OC2=O)CC1`, the “% Inhibition” value amounted to 2% and the Z score is recorded as -0.49.
For `O=C1NC2(CCCC2)C(=O)N1Cc1cc(-c2ccc(Cl)cc2)no1`, in that order: -12% and 1.37.
For `O=C(N[C@H]1CCCC[C@@H]1F)N1CCCO1`, in that order: -11% and 1.27.
With `Cc1ccc[n+](-c2nc3ccccc3nc2[N-]S(=O)(=O)c2ccc(Cl)cc2)c1`, the “% Inhibition” value came out at 28% and the Z score is reported as -3.17.
For `O=C(O)C1C2CCCC2CN1C(=O)c1cccc(-c2ccoc2)c1` (configuration not stated), in that order: -12% and 2.34.
On the same counts, the results for `CN(C)c1ccc(C(=O)N2CCN(c3nc4nccc(-c5cccc(C(F)(F)F)c5)n4n3)CC2)cc1` are 2% and -0.24.
For `Cc1cc(N[C@H]2CCNC2=O)nn1-c1ccc(Cl)cc1Cl`, the “% Inhibition” value is listed as 3% and the Z score is recorded as -0.32.
For `CC1(C2CC2)CCN(Cc2cc(C(=O)O)co2)CC1`, in that order: -5% and 0.64.
On the same counts, the results for `CC(C)Oc1ccc(-c2nc(C(=O)O[C@H](C#N)C3CC3)cs2)cc1` are -9% and 1.08.
For `COCC(=O)NC1(CC2CC2)CCN(S(=O)(=O)c2ccccc2)CC1`, in that order: -8% and 1.59.
With `C[C@H](NC(=O)CN1C(=O)CCn2nc(-c3ccc(Cl)cc3)cc21)c1ccccc1`, the “% Inhibition” value is -14% and the Z score is listed as 1.76.
For `Cc1ccc2c(c1)C(c1ccccc1)=Nc1ccc(C)cc1C(c1ccccc1)=N2`, in that order: 7% and -0.71.
Consider `CCn1cnnc1[C@H](C)NC(=O)Cn1cc(C)cn1`, for which the “% Inhibition” value came out at 1% and the Z score was -0.27.

The values above are taken from ChEMBL document CHEMBL4888484, “Replenishing the malaria drug discovery pipeline: Screening and hit evaluation of the MMV Hit Generation Library 1 (HGL1) against asexual blood stage Plasmodium falciparum ,using a nano luciferase reporter read-out” (2022).
